According to the supplement of paper PMC12632987:
The full ranking holds about 4,500 sequences; the median of “median log2 fold change of GCK-ALFA target abundance (FLAG IP / Myc IP barcode read proportion)” is about 0.078, and the lowest 2% start at about -0.6. This is one part of the list.

B1: GBRAP_96_7092 (protein)
chain: ELEEVKELVRKLLEALDTDPEKAREYARELLKYPAELIAKALKELGVSPEEVVRIMRLLYEVDPSRIPDLAEALAEHLPSSVVVAVVEEAIRLEEARRAA
B2: GBRAP_125_2974 (protein)
chain: SREELLEDLATVAARLGFSEDDVAEAVRLAGEHSIKGTLYAIMAALGYDDIADLVEKITEEEAKEVLKRVAAYIKAHPDLTPEETAALLKEELKKAIAKK
B3: GBRAP_52_5903 (protein)
chain: MRERLRALVEEMLALVKAGDEEGARALARELAETLDDEELRELIEEVARLVREAPLEDLPYWERLAEIMAEALEEAGKDEALADLLLSRTAAAIYERLQR
B4: GBRAP_80_6802 (protein)
chain: AEEELKKYLAEIEKLDPELAKKVKKIIEEAKEMGVPLEDLAEFAKAVAELLKKDKELAKEMVEELEEELREEKEEGNSENARATVRVAAGEMLLAVEELE
B5: GBRAP_160_4623 (protein)
chain: SEKLKKAKELLEEEKEFVLSLVPELDTESFAHALETEFGSTILYLLEEGLISEETADKLMEVVDEAVDYLLAHPDLSPEERRALVEETLEKMKEILEEEY
B6: GBRAP_52_5847 (protein)
chain: SEERARRLAKELVELRLEGKEEELEKRIKELVETLSEEEVLKILKELAELAKEADEETAEAILEVAELLADKAEEAGFDEDELSYKLAEVAAAAYEKLQK
B7: GBRAP_125_3084 (protein)
chain: AVEEALEAAGLILRAAGFSDEEVEDFRRLSADSTVKAIFEALALLLLDEETALKATKLTEEEALAVLKRVAAEIEANPDLTPEQVRALLAEEVEKALAES
B8: GBRAP_80_6833 (protein)
chain: AEARLEAGIAEIEKIDPEIAKIVREIVAIARAMGVPLERLTRFVEAILELAKKDKEKARKLVTETLKEVKEAAARGDAAEVAAIIADAESDALLEVEELE
B9: GBRAP_83_6982 (protein)
chain: KEKITVVFPGDKIDEAPEIVEDLTKEEGYEVDVEIIADKADIPKVKAMVKEIAKLGIETNIDILLRGATPEEAAALKAELEAIAKAAGVNIKVNVEVEEE
B10: GBRAP_52_6202 (protein)
chain: MRERMRKLAEELVELMKAGKREEARALAKEIAETLSEEELKILAEEMARLAEEAKPEDFDTVFEAAEMFAEELLAAGWDEVLADDFLARVAAALYKRELA
B11: GBRAP_43_5740 (protein)
chain: MQEWVDGAADFTKLALEDESLTDEQKLKVIADLYRILADSGSKSAKLYEEAAKAIENADTVENLEKAIKLTKEIAEKDPKYADTFKKIAEYLEKLKEKRK
B12: GBRAP_11_2731 (protein)
chain: KKEKLKEIARLAEEAAELIAALIAEGPDNAELRARLGERLEELAKLVEEYGDEDLKKLVEIMREEWERALADPANAVAHLERALAAARVLAGQVLLDIEE
B13: GBRAP_184_5268 (protein)
chain: KVEEFEIEAKNEEEIKEKLKEIAEKVKDTKADLIIEVDIENPTEEKVKTLMNTLGEIKKAGYASSITVGINNEMSEEVIDLGYELADKYGIKLTVALSEE
B14: GBRAP_150_3927 (protein)
chain: SLETLKILTDTLLDYLEAILEGHDELVPHALKLAKAAEEEAEELPEKYRKPILEKLRKIIKLLEEILAGAPEEERKKLKKEALELARELEELVEELLEEE
B15: GBRAP_11_2853 (protein)
chain: KKEKLKEIAELAEEAIKLLEELLKKGVDDEELQKKILEKLKELLELVKKYLDEADVKLAEYALESFEKSLKDPENAEEYVNEALAFLRVLLGNVLLEIDE
B16: GBRAP_52_6339 (protein)
chain: SEERVRAVAEAIAAAVAAGRLDEAVALTREAAATLSREEVRRMLRLFAELAAERLPDRPDLVMEAAFRIADVVEETLGDEVLADDLEAYTAKLLVERQQA
B17: GBRAP_125_3119 (protein)
chain: HMERLLEDLRIVLRALGLDEEDIEEALELARRYGLKGTMIAVAKALGYDEIADLIEQLTEEQVAAAVAEVAEYIRAHPDLTPEEVKALLLEVLRKALEAQ
B18: GBRAP_52_6119 (protein)
chain: MKERAEKLVREAFELVKAGRLEEARALLREWAEKANEEEVEEFAEALAELAKEVAPEDADAVWRLAEMAAEALEEAGWPEELVDYLLAKTAAALYELEQK
B19: GBRAP_14_3848 (protein)
chain: MEALVKAVDETAADLKEFAADVLPEHADEINAEIDRLAKELKEKIKKEKLNKEEVAELAEEMAARLAAYLAAHGYASDTERAAFRAHLLSTFLLKLEEIE
B20: GBRAP_80_6754 (protein)
chain: ARAELEAALAELKALDPELGERLREVLERALAAGVPVATVTRLVRALVELAKLDLEKARELAEETIRRLEEELAAGDLEGATATLIDAESDALLEVEELE
B21: GBRAP_78_6610 (protein)
chain: EKKEKIEELLEKAIEKLREIRKKSPEVADLAAEAETLAGTALLQVDTKSESKEEIEETLEEAIKEAKELLKKLEDKDEELQKLAKEALELLEEALKLVKE
B22: GBRAP_160_4517 (protein)
chain: SESLEELEKLVDEAAEEVKESIDEESVEEAKVVAAVEYGEVIMEMVEDESFSDEAVDAAAEIGDELVEELKENENASKEELKKIVDEKAKELKEKLKELS
B23: GBRAP_78_6635 (protein)
chain: EVEELIDKALEKVSEAAKAALKLPLDLRAEVLDELSDAAVELVEAEEGEDKEEELEEALEELEEALEIVEENDSPLTEEIKKLLEEAIELVKKAIEELKE
B24: GBRAP_160_4467 (protein)
chain: SATVKALVEELKKDVEETLKLNKNESVEQIANAVEITIGSHLMEAYEEGKITDEQEDILIEAMDKVRELAKKEKNASPEEAIKKIKEIVEEAAEKILKAS
B25: GBRAP_14_3878 (protein)
chain: MEKIKKAIEETRNRLKEFFDQFDPEKAAKLKELVDEEFDKMLKTIEETGDIEKAIDDTKKSLLEKAEEILKDAPEEDKAAALAEISVELAELEEEIDELV
B26: GBRAP_125_3064 (protein)
chain: MKEEAIEDLLLLARALGLSEDEIAELRELAERGSIKNTLIAIALAEGREELAEALARLTEEETIEVLRRLAAELEANPELTPEEVLERLLALAREALAAR
B27: GBRAP_160_4806 (protein)
chain: MEKVKKLLKEAREDLLDTAEASADLPIADRARLLEAEGYTNILDFEEELGISDETADKLDAIVDAMVATLLANPDLSDEEVLALVEKAAEEMEKIVLEEA
B28: GBRAP_166_4898 (protein)
chain: ATAAAIARIRALAADVIANIASLTDEELLAAFVEMAEIAEEAGTTPEVRAALAAAFTAVLAAAEAAGRDPARVRSLALAAVGANEELLDAVEAALAAAAA
B29: GBRAP_11_2828 (protein)
chain: KKEKLKELAKQAEEVAKKLEELIKSGKPTQEELEELLKKAEELLKKVKEYGDEALAKLAEILVELIKEAIADPENQQEYLKQALAAARVLEGQFLLEAEE

Each binder was assayed against GABARAP, O95166 (assay: median log2 fold change of GCK-ALFA target abundance (FLAG IP / Myc IP barcode read proportion) (log2 ratio); each designed protein is fused to an ALFA-tag nanobody in HEK293 cells to bring the named protein to FLAG-tagged glucokinase (GCK); Myc marks an untargeted standard; higher = target protein stabilised (more abundant)). Conditions: target protein: 3xFLAG-MCP-GCK-ALFA reporter; HEK293 landing pad (RPLP).
GABARAP, O95166, sequence (O95166 whole entry, the tested form may be a part): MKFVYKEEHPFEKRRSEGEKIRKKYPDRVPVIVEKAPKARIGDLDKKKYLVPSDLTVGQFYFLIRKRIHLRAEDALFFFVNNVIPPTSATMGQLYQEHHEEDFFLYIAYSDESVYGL
How it was run: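 An ALFA-nanobody-fused binder library was recombined into HEK293 landing-pad cells and induced with 2 μg mL^−1 doxycycline. Cells were transfected with a plasmid expressing a FLAG-tagged target and a Myc-tagged standard. After 48 h, lysates underwent anti-FLAG and anti-Myc immunoprecipitation, and circular RNA barcodes were reverse transcribed, amplified and sequenced. Target abundance is the per-binder median log2 ratio of FLAG to Myc barcode read proportions. Barcodes needed ≥10^−7 proportion in both replicates, binders ≥3 barcodes per replicate, and a 10^−6 pseudocount was added; the two replicates were pooled.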

Row | Binder | median log2 fold change
1 | B1 | 0.0866
2 | B2 | -0.0102
3 | B3 | -0.0397
4 | B4 | 0.0857
5 | B5 | -0.16
6 | B6 | -0.0891
7 | B7 | 0.182
8 | B8 | 0.286
9 | B9 | 0.0394
10 | B10 | 0.0579
11 | B11 | 0.19
12 | B12 | 0.22
13 | B13 | 0.213
14 | B14 | -0.0306
15 | B15 | 0.174
16 | B16 | -0.0824
17 | B17 | -0.224
18 | B18 | -0.201
19 | B19 | 0.135
20 | B20 | 0.0854
21 | B21 | 0.129
22 | B22 | 0.416
23 | B23 | -1.21
24 | B24 | 0.086
25 | B25 | 0.0966
26 | B26 | -0.046
27 | B27 | -0.487
28 | B28 | -0.437
29 | B29 | -0.079
